Out of some 48,000 compounds screened, about 1,200 (2.5%) were called active. Roughly 2% stayed inconclusive and do not appear here.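 How the source made its calls: active means activation of at least 60% and not above a set upper limit (about 1 call in 100 departs from these limits); inconclusive means activation of 40% to 60%, or above that upper limit; inactive means activation under 40%.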 The list shows a part of the results.
Molecular target: Probable G-protein coupled receptor 32 (Homo sapiens) (UniProt O75388)
UniProt O75388, sequence (O75388 whole entry, looked up): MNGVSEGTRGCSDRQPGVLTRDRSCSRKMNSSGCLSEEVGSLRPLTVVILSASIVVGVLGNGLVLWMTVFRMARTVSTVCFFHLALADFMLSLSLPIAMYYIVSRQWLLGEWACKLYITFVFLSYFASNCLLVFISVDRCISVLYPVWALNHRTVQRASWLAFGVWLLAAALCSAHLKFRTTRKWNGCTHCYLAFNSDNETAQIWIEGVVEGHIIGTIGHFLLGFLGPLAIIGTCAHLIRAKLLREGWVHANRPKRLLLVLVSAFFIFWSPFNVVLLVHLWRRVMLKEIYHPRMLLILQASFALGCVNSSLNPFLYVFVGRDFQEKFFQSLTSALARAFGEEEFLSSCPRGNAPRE
Test: qHTS for Agonists of Human Resolvin D1 Receptor DRV1; further: 0% is about no effect
Details: CHO-K1 GPR32 beta-arrestin PathHunter luminescence, 90 min; at 76.9 µM; active compounds read high; zero percent set by DMSO-only wells
Method in brief: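 Using DMSO wells as EC0, agonist-induced signal was taken as chemiluminescence from beta-Gal reconstituted upon beta-arrestin recruitment to GPR32 in CHO-K1 cells after 90 min compound treatment.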

| SMILES | activation |
| --- | --- |
| Cc1cccc(CNC(=O)CSCc2cnn(-c3ccccc3)c2-n2cccc2)c1 | inactive: -22.8% |
| CCOC(=O)c1ccc(NS(=O)(=O)c2cc(-c3onc(C)c3C)ccc2C)cc1 | inactive: -3.14% |
| Cc1nn(C)c2c1c(C(F)(F)F)cc(=O)n2C(C)C(=O)NCc1ccc(Cl)cc1 (centres undefined) | inactive: -3.82% |
| O=C(Nc1ccc(Br)cc1F)N1CCC(CN2CCCC2)CC1 | inactive: -7.15% |
| O=S(=O)(O)CCS | inactive: -9.49% |
| CC1=C(C(=O)OCc2ccccc2)C(c2cccc(Cl)c2Cl)CC(=O)N1 (centres undefined) | inactive: 46.2% |
| COc1cc(OC)c(C2Nc3c(C)cccc3-c3cc(C)nn32)cc1OC (centres undefined) | inactive: 4.22% |
| CCN1C(=O)c2ccccc2S(=O)c2ccc(C(=O)N3CCN(c4cccc(C)c4)C(C)C3)cc21 (centres undefined) | inactive: -3.71% |
| CC1=C(c2ccc(C)cc2)S(=O)(=O)NC1=NCc1cccc(F)c1 | inactive: -18.4% |
| COC(=O)c1ccc(NC(=O)CC2C(=O)N(c3ccc(Cl)cc3)C(=O)N2Cc2ccco2)cc1 (centres undefined) | inactive: -23.5% |
| Cn1c(-n2cccc2)c(-c2c(-c3ccccc3)[nH]c3c2c(=O)n(C)c(=O)n3C)c(=O)n(C)c1=O | inactive: 8.22% |
| CCCCOC(=O)c1ccc(NC(=O)CSc2nc3c(c(=O)[nH]2)CCCC3)cc1 | inactive: -9.45% |
| CCOc1ccccc1NC(=O)CN1C(=O)CC(c2ccc(OC)c(OC)c2)Sc2ccccc21 (centres undefined) | inactive: -26% |
| Cc1ccc(-c2nnc(C3CCN(S(=O)(=O)c4ccc(C)c(C)c4)CC3)o2)cc1 | inactive: -3.09% |
| COc1ccc(NC(=O)CC2C(=O)N(c3ccc(F)cc3)C(=O)N2Cc2ccco2)cc1 (centres undefined) | inactive: -4.57% |
| Cc1ccccc1CN1C(=O)c2ccccc2Sc2ccc(C(=O)NC(C)c3ccccc3)cc21 (centres undefined) | inactive: -18.4% |
| CCN1CCOC(=O)C1CC(=O)Nc1cc(C)cc(C)c1 (centres undefined) | inactive: 22.4% |
| CCCCCCCCCCC/C=C\C(C)(C)/C=C\CCCC(=O)O | inactive: -11.2% |
| Cc1cc(C)cc(NS(=O)(=O)c2ccc3[nH]cc(C(=O)N(C)Cc4ccccc4)c(=O)c3c2)c1 | inactive: -1.36% |
| O=C(NCc1ccc(F)cc1)c1cc2c(=O)n3ccccc3nc2s1 | inactive: 13.2% |
| Cc1ccc(CNC(=O)Cn2c(=O)n(-c3ccc(Cl)cc3)c(=O)c3c(C)c(C)sc32)cc1 | inactive: -7.32% |

| SMILES | activation |
| --- | --- |
| O=C(NCc1ccccc1)c1nn(-c2ccccc2)nc1CO | inactive: -11.2% |
| COc1ccc(OC)c(/C=C(/C#N)c2nc(-c3ccc(-c4ccccc4)cc3)cs2)c1 | inactive: -27.1% |
| Cc1ccc(N2C(=O)CCSC23C(=O)N(Cc2ccccc2)c2ccccc23)cc1F (centres undefined) | inactive: -33.2% |
| Cc1ccc(CSc2nc3c([nH]c4ccccc43)c(=O)n2C)cc1 | inactive: 4.39% |
| Cc1c(-c2nc(-c3ccccc3)no2)nnn1-c1cccc(C(F)(F)F)c1 | inactive: -3.04% |
| COC(=O)c1ccccc1NC(=O)c1ccc2c(c1)CCN2S(C)(=O)=O | inactive: -12.4% |
| COc1cc(Nc2ncc3c(n2)CCN(Cc2cc(Br)cs2)C3)cc(OC)c1 | inactive: -1.23% |
| Cc1cc(Nc2ccc(F)cc2)n2c(nc3ccccc32)c1C#N | inactive: 37.2% |
| CCCCNc1nc2c(S(=O)(=O)c3ccc(C)c(C)c3)nnn2c2ccsc12 | inactive: -9.7% |
| Cc1nn2c(-c3ccco3)ccnc2c1-c1ccc(F)cc1 | inactive: -6.49% |
| COc1ccccc1CNC(=O)c1ccc2c(c1)nc(C)n2-c1ccccc1OC | inactive: -0.527% |
| COc1ccc(NC(=O)c2cccn2-c2nnc(N3CCCCC3)s2)cc1Cl | inactive: -18.3% |
| COc1ccccc1NC(=O)CN1CCCN(S(=O)(=O)c2ccc(Br)cc2)CC1 | inactive: -38.7% |
| Cc1nc2ccccn2c(=O)c1NC(=O)c1ccc(C(F)(F)F)cc1 | inactive: -4.15% |
| CCOc1ccc(NC(=O)Cn2c(C)cc3ccccc3c2=O)cc1 | inactive: -6.55% |
| Cc1ccc(NC(=O)Cn2c(=O)n(CCCCC(=O)NCc3ccccc3Cl)c(=O)c3ccccc32)cc1C | inactive: -5.63% |
| CCOc1ccccc1OCCN[C@H](C)Cc1ccc(OC)c(S(N)(=O)=O)c1 | inactive: 16% |
| O=c1c2oc3ccccc3c2n(Cc2ccccc2Cl)c(=O)n1Cc1ccco1 | inactive: -13.2% |
| O=C(Nc1ccc2nc(SCC(=O)N3CCc4ccccc43)sc2c1)c1ccc(F)cc1 | inactive: -0.435% |
| COc1ccc(CN(Cc2ccco2)c2cnc(S(C)(=O)=O)nc2C(=O)Nc2ccc(C)c(Cl)c2)cc1 | inactive: -14.6% |
| CCCc1nc(SC)ncc1C(=O)N1CCN(c2ccc(Cl)cc2)CC1 | inactive: 12.6% |

| SMILES | activation |
| --- | --- |
| CCCn1c(SCc2nc(-c3ccc(OC)c(OC)c3)no2)nnc1-c1ccccc1 | inactive: -26.4% |
| Cc1ccc(NC(=O)c2cnn3c(C(F)F)cc(-c4ccccc4)nc23)cc1F | inactive: -18% |
| O=C(NCCc1ccccc1)C1CCC(CNS(=O)(=O)c2ccccc2)CC1 (centres undefined) | inactive: -13.1% |
| CC(C)Oc1ccc(C(=O)N2CCN(CCc3ccccn3)CC2)cc1 | inactive: 26.8% |
| CC1CCc2nn(CC(=O)Nc3ccccc3Cl)cc2C1 (centres undefined) | inactive: -14.4% |
| COc1ccc(OC)c(CNC(=O)c2ccc(-c3nc(CSc4ccccc4)c(C)o3)cc2)c1 | inactive: -10% |
| CCOc1ccc(NC(=O)NCCc2c(C)nn(C)c2C)cc1 | inactive: 14.5% |
| COc1cccc(S(=O)(=O)N2CCN(Cc3ccc4c(c3)OCO4)CC2)c1 | inactive: -11.6% |
| CN(Cc1ccccc1)S(=O)(=O)c1ccc(-c2cnc(C3CC3)o2)cc1 | inactive: 0.499% |
| Cc1c(C2=CCN(S(=O)(=O)c3cccc(Cl)c3)CC2)c2ccccc2n1CC(=O)N1CCCC1 | inactive: -18.9% |
| Cc1ccc(NC(=O)C(C)Sc2nc(=O)cc(N)n2-c2cccc(C)c2)cc1 (centres undefined) | inactive: -16.5% |
| COc1ccc(NC(=O)C(=O)NCC(c2cccnc2)N2CCc3ccccc32)cc1OC (centres undefined) | inactive: -24.3% |
| Cc1cccc(N2CCN(C(=O)CN3CCSc4ccccc43)CC2C)c1 (centres undefined) | inactive: 7.62% |
| CCc1ccc(-c2nc3c(c(SCc4ccccc4F)n2)Cc2c(CO)cnc(C)c2O3)cc1 | inactive: 9.03% |
| CCOC(=O)c1ccc(NC(=O)Cn2cc(C(=O)c3ccc(CC)cc3)c(=O)c3ccc(C)nc32)cc1 | inactive: 15.9% |
| CCN1c2ccccc2-c2nc(SCC(=O)NCc3ccc(C)cc3)ncc2S1(=O)=O | inactive: -5.87% |
| CCOC(=O)c1cnc2ccccc2c1NCCc1ccc(OC)c(OC)c1 | inactive: -4.73% |
| COc1ccc(CNC(=O)c2cnc3sc(N4CCCCCC4)nn3c2=O)cc1 | inactive: -2.47% |
| COC(=O)C1=C(c2ccccc2)c2ccccc2S(=O)(=O)N1CC(=O)Nc1ccc(F)c(F)c1 | inactive: -7.13% |
| Cc1ccc(CNC(=O)Cn2c(=O)cc(C(F)(F)F)c3c(C)nn(C)c32)cc1 | inactive: -0.698% |
| Cc1sc2ncn(CC(=O)N3CCN(c4ccc(F)cc4)CC3)c(=O)c2c1S(=O)(=O)N1CCC(C)CC1 | inactive: -5.88% |

| SMILES | activation |
| --- | --- |
| Cc1ccc(CNC(=O)C2CCN(S(=O)(=O)c3c(C)noc3/C=C/c3cccs3)CC2)cc1 | inactive: -25.5% |
| CCOc1ccc(NC(=O)CN(c2ccc(CC)cc2)S(=O)(=O)c2c(C)noc2C)cc1 | inactive: -31.1% |
| CCOc1ccc(-c2nc(Cn3c(=O)cc(-c4ccccc4)c4c(C)nn(C)c43)c(C)o2)cc1 | inactive: -7.11% |
| O=C(CCS(=O)(=O)c1cc2c(cc1Cl)NC(=O)CO2)NCc1ccccc1Cl | inactive: -0.601% |
| CSc1ncc(C(=O)NCc2cccc(F)c2)c(-c2ccccc2)n1 | inactive: 1.79% |
| O=C(NCc1cccc(Cl)c1)c1ccc(NC(=O)N2CC3CCCN3c3ccccc32)cc1 (centres undefined) | inactive: -17.3% |
| Oc1c(C(c2ccc(Cl)cc2Cl)N2CCN(c3ccccc3)CC2)sc2nc(-c3ccco3)nn12 (centres undefined) | inactive: -5.71% |
| CC(C)Oc1ccc(CNC(=O)c2ccc(CN3CC(=O)N4CCCCC4C3=O)cc2)cc1 (centres undefined) | inactive: -5.9% |
| Cc1cc(C)cc(Nc2cc(C(=O)NC3CCC(C)CC3)c3ccccc3n2)c1 (centres undefined) | inactive: -4.85% |
| Cc1ccc(S(=O)(=O)Nc2cc3c(cc2C)n(C)c(=O)c(=O)n3C)c(C)c1 | inactive: -19.5% |
| COc1ccc(CCNC(=O)c2c(C)oc3ncnc(N4CCOCC4)c23)c(OC)c1 | inactive: -8.53% |
| O=C(Cn1c(=O)c(C(F)(F)F)nc2ccccc21)Nc1cccc(Br)c1 | inactive: 7.73% |
| Cn1nnnc1SCCCNCc1ccc(-c2ccc(F)c(Cl)c2)o1 | inactive: -2.88% |
| CCc1nc(-c2cc(S(=O)(=O)N3CCN(c4ccccc4F)CC3)ccc2OC)no1 | inactive: -4.8% |
| CN(Cc1ccc(F)cc1)S(=O)(=O)c1nnc(NC(=O)c2ccccc2Cl)s1 | inactive: 11.6% |
| CCCN1C(C(=O)c2ccccc2)=C(OC(=O)c2ccc(OC)cc2)c2ccccc2S1(=O)=O | inactive: -15.9% |
| Cc1cc(=O)n(CC(=O)NCc2ccc(OC(C)C)cc2)c2c1c(C)nn2-c1cccc(F)c1 | inactive: -4.2% |
| Cc1ccc(CNC(=O)C2CCCN(S(=O)(=O)c3cn(C)cn3)C2)cc1 (centres undefined) | inactive: -11.1% |
| O=C(NCCc1ccccc1)c1ccc(CS(=O)(=O)Cc2ccccc2Cl)o1 | inactive: 1.51% |
| CCc1ccc(NC(=O)CN2C(=O)CCSc3ccccc32)cc1 | active: 63.1% |
| Cc1cc(C)cc(NS(=O)(=O)c2ccc(N3CCCCS3(=O)=O)cc2)c1 | inactive: -2.56% |

Reference: PubChem BioAssay AID1346428 (National Center for Advancing Translational Sciences (NCATS), 2018)
